About 3,600 (1.6%) of roughly 230,000 compounds were called active. Inconclusive results, whose numbers are uncertain, are shown with a selection of clear calls. Calls come from the whole dose curve; as a rule, active = well fitted inhibition curve with a large enough effect (not every such curve was filed as active); inconclusive = small, poorly fitted or top-dose-only effect, or another doubt; inactive = no such curve, though single readings can be large or run the other way. Potencies beside an inconclusive call are fits to weak or partial responses and may not hold up.
These compounds were tested against Lysine-specific demethylase 4E (Homo sapiens) (UniProt B2RXH2) (assay: qHTS Assay for Inhibitors of Human Jumonji Domain Containing 2E (JMJD2E)). Conditions: JMJD2E catalytic domain, FDH-coupled NADH fluorescence (FDH is formaldehyde dehydrogenase); series mostly up to 57.1 µM; activity change, negative = inhibition: at the top concentration.
Note: nearly all actives have a fitted effect of over 50% in size.
Potency is the fitted concentration of half-maximal effect; tags give direction and shape of the fitted curve.
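Throughout, for activity change, negative = inhibition: 0% = wells with enzyme and -100% = buffer wells without enzyme.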

Sequence of UniProt B2RXH2 (B2RXH2 whole entry, looked up, the tested form may be a part): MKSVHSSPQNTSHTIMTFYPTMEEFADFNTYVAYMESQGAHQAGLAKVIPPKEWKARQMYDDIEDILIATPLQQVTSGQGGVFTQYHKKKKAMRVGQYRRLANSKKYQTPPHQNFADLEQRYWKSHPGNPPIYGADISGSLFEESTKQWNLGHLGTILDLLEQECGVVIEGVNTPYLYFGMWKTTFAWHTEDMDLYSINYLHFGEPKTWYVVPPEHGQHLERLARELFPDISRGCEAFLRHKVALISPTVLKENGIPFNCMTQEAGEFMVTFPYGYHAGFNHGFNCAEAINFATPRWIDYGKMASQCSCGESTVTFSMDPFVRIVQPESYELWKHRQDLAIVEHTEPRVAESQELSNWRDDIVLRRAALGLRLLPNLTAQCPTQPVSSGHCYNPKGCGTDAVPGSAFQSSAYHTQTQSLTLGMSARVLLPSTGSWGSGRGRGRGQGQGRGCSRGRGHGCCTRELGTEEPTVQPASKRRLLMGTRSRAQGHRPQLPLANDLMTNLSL

SMILES | Potency | activity change, negative = inhibition
Cc1ccc(C(OCC(O)CNC(C)c2ccccc2)c2ccccc2)cc1 (stereo not drawn) | inconclusive: 39.8 µM [inhibitor, single point] | 
O=C(CSc1nnc(-c2ccccc2)n1-c1ccccc1)NCc1ccco1 |  | inactive: 3%
CCCC(=O)Nc1nc(C)c(-c2csc(Nc3ccccc3OC)n2)s1 |  | inactive: 3.91%
Cc1ccccc1-c1nc2cc(N)ccc2o1 | inconclusive: 28.2 µM [inhibitor, single point] | 
O=C(COc1ccc([N+](=O)[O-])cc1)Nc1ccc(C(=O)NCc2cccnc2)cc1 |  | inactive: 5.12%
CCN(CC)C(=S)SC1CCCCN(C(=O)c2ccc(F)cc2)C1=O (stereo not drawn) |  | inactive: -0.438%
COc1ccc2[nH]c3c(C)c4ccncc4c(C)c3c2c1 | active: 8.91 µM | 
Cc1ccc2[nH]c(=O)c(CN(C)C(=O)c3cccs3)cc2c1 | inconclusive: 39.8 µM [inhibitor, single point] | 
COc1ccc2[nH]c(C(=O)Nc3ccc(F)cc3Br)cc2c1 | inconclusive: 35.5 µM [inhibitor, single point] | 
Cc1nc2sc(C(=O)OC(C)C)c(N)c2c(C)c1C | inconclusive: 3.16 µM [inhibitor, full curve] | 
COc1cc(C(=O)NCc2ccc3[nH]c(C)cc3c2)cc(OC)c1OC |  | inactive: 4.93%
O=[N+]([O-])c1cccnc1N1CCC(c2cc(-c3ccc(Cl)cc3)n[nH]2)CC1 |  | inactive: -6.9%
COC(=O)C1=C(C)N(c2ccc(Cl)c(Cl)c2)C(=O)C1 | inconclusive: 31.6 µM [inhibitor, single point] | 
CCOC(=O)c1sc(=NC(=O)c2cccc(C)c2)n(C)c1C | inconclusive: 8.91 µM [inhibitor, partial curve] | 
CCN(CC)S(=O)(=O)c1ccc(Cl)c(C(=O)Nc2nncs2)c1 | inconclusive: 39.8 µM [inhibitor, single point] | 
COc1ccccc1-n1c(SCC(=O)Nc2cccc3ccccc23)nc(O)cc1=O |  | inactive: -22.9%
S=c1[nH]nc(COc2ccccc2)n1C1CCCCC1 |  | inactive: -20.5%
O=C(NC(=S)NNS(=O)(=O)c1ccc(Cl)cc1)c1cccnc1 |  | inactive: -4.29%
CCCN(c1ccc(OCC)cc1)c1ncnc2nc[nH]c12 |  | inactive: 3.3%
O=C1C2N=NN(CC(=O)N3N=C(c4cccc5ccccc45)CC3c3ccccc3)C2C(=O)N1c1ccccc1 (stereo not drawn) | inconclusive: 22.4 µM [inhibitor, partial curve] | 
COC(=O)c1sc2nc3c(cc2c1N)COC(C)(C)C3 |  | inactive: 1.54%
O=C(Nc1ccc([N+](=O)[O-])cc1)Nc1ccc2c(c1)OCCO2 |  | inactive: -1.72%
Cc1ccc(CNC(=O)C2CCCN(c3nc(C)cc(C)n3)C2)cc1 (stereo not drawn) | inconclusive: 3.98 µM [inhibitor, single point] | 

Reference: PubChem BioAssay AID2147 (National Center for Advancing Translational Sciences (NCATS), 2009)
